Experimental data reported in article PMC4336329 (PLoS ONE, 2015).
Screen size: about 310,000 compounds; about 14,000 (4.5%) showed an effect of 50% or more. The effect is printed as a negative number. The list shows a part of the results.

What follows are compounds tested against human ether-à-go-go-related gene (hERG) potassium channel (human, UniProt Q12809) (assay: primary screen, population patch clamp on CHO cells stably expressing hERG).
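Also: peak tail current of the secondary pulse compared with the same well before compound.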

human ether-à-go-go-related gene (hERG) potassium channel, sequence (Q12809 whole entry, looked up): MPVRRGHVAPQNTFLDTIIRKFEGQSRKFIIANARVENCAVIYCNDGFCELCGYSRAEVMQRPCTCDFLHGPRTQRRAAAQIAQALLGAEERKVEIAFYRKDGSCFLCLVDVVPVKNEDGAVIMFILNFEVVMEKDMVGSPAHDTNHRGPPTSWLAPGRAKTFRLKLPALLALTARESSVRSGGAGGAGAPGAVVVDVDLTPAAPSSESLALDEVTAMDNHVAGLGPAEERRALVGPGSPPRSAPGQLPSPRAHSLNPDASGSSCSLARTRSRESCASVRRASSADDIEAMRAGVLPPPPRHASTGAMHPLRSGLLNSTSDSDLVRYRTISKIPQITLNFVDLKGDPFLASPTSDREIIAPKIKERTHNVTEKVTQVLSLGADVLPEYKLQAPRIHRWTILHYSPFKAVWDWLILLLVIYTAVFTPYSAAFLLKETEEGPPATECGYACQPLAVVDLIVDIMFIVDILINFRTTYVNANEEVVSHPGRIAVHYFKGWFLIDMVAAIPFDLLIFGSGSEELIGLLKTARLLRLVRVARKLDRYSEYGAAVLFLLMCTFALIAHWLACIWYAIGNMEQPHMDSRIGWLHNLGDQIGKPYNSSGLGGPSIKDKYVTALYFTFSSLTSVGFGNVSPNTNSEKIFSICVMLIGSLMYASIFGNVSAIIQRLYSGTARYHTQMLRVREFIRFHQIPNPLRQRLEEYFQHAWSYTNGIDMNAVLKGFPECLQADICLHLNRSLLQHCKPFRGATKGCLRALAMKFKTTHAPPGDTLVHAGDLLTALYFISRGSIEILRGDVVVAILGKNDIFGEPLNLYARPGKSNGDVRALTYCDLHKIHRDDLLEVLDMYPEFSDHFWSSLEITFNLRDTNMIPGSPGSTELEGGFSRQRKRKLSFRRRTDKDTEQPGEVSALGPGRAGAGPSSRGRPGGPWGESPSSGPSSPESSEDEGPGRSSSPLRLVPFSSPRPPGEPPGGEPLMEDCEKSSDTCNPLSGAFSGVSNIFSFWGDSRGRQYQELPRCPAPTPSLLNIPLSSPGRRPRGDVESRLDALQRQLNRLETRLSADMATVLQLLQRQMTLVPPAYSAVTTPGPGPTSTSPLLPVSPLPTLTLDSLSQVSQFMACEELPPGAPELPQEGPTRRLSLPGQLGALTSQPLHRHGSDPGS

SMILES	hERG current change (%, negative = inhibition) at 10uM
Cc1ccc(N(CC(=O)N/N=C/c2cccc(Br)c2)S(C)(=O)=O)cc1	13.6%
Cc1ccc(C)c(OCC(=O)NNC(=O)C2CCC2)c1	25.2%
COc1ccc(NC(=O)C2CCCN(S(=O)(=O)c3cccc4nonc34)C2)c(OC)c1 (centres unmarked)	5.29%
COc1ccc(CC(=O)N2N=C(C)CC2(O)C(F)(F)F)cc1OC (centres unmarked)	9.76%
CCCCN(C(=O)C1=NN(c2cc(C)ccc2C)C(=O)CC1)c1c(N)n(CCC)c(=O)[nH]c1=O	1.63%
Cc1cccc2cc3c(N)c(C(=O)N4CCOCC4)sc3nc12	1.55%
CC(C)(C(=O)c1cccnc1)c1cccnc1	7.84%
Cn1c(SCC(=O)NCCc2ccccc2)ncc(C(=O)Nc2ccc(F)cc2)c1=O	9.45%
CNC(=O)c1csc(-c2ccncc2)n1	18.2%
COc1ccccc1Nc1ncc(-c2cccs2)s1	0.587%
CCOC(=O)N1CCN(C(=O)COC(=O)CNC(=O)c2ccc(Cl)cc2Cl)CC1	-41.2%
Cc1cccc(S(=O)(=O)N2CCn3cccc3C2C)c1 (centres unmarked)	-6.56%
CC1CCCCC1NC(=O)c1ccc(NC2=NC3CS(=O)(=O)CC3S2)cc1 (centres unmarked)	12.9%
CCCC(=O)Nc1ncnc2c1ncn2[C@@H]1O[C@@H]2COP(=O)([O-])O[C@H]2[C@H]1OC(=O)CCC.[Na+]	19.6%
O=S(=O)(NCC1CCCO1)c1ccc(Cl)cc1 (centres unmarked)	14.6%
CCNC(=O)CCSc1nnc(-c2ccncc2)o1	19.3%
COc1ccc(/C=C2\SC(=O)N(CCNC(=O)Cc3coc4cc(OC)ccc34)C2=O)cc1	13.7%
CCN(CC(=O)Nc1cccc(OC)c1)CC(=O)Nc1ccc(C)cc1Cl	-10.4%
CC(C)OC(=O)C(C)(C)Oc1ccc(C(=O)c2ccc(Cl)cc2)cc1	-3.67%
C#CCOCCOCCOCCNc1nc(N2CCN(C(=O)CCCCCCCCCCNC(=O)[C@H]([C@@H](C)CC)n3cc(CCCCCN)nn3)CC2)nc(N2CCN(C(=O)CCCCCCCCCCNC(=O)[C@@H]([C@H](C)O)n3cc(C)nn3)CC2)n1	-7.88%
COc1ccc(-n2ncc3c2CC(C)(C)CC3NC(=O)c2ccnn2C)cc1 (centres unmarked)	-78%
CCC(=O)Nc1nc2n(n1)C(c1ccc(OC)cc1)C=C(c1ccccc1)N2 (centres unmarked)	7.26%

SMILES	hERG current change (%, negative = inhibition) at 10uM
CC(C)CCc1noc(CN2CCN(CC(=O)NC(C)C)CC2)n1	-4.24%
CCCOC(=O)c1ccc(NC(=O)c2cc(Cl)ccc2OC)cc1	-6.88%
Cc1c(C(=O)O)cccc1-c1ccc(/C=C2\SC(=O)NC2=O)o1	19.4%
CCCC1CCC(c2nc(-c3cccnc3)no2)CC1 (centres unmarked)	2.03%
O=C(NC1CCN(C(=O)Nc2ccccc2)CC1)C1CCCCC1	-7.88%
CCN(CC)C(=O)c1cccc(-c2ccc(OC)cc2)c1	-17%
COc1ccc(OC)c(C(O)c2nc3ccccc3n2C)c1 (centres unmarked)	-5.81%
COc1ccccc1N(CC(=O)N/N=C/c1ccc(OCC(=O)NCc2ccco2)cc1)S(=O)(=O)c1ccc(C)cc1	7.99%
CCOc1ccc(CCNC(=O)COC(=O)COc2cc(C)cc(C)c2)cc1OCC	5.31%
CCOP(=O)(Nc1ccc2oc(=O)c3ccccc3c2c1)OCC	-6.96%
COc1cc(C(C)=O)ccc1OCC(=O)Nc1ccccc1N1CCCCC1	4.27%
CN(CCCCCCCCC(=O)/C=N/O)Cc1ccccc1.Cl	-58.4%
CN(C)C(=O)CSc1nnc(-c2cnccn2)n1C	7.76%
CCCN(CCO)Cc1ccc(F)c(Br)c1	-5.08%
COc1cc(CN2CCCCC2)ccc1OCc1ccccc1.O=C(O)C(=O)O	-35.1%
CCc1ccccc1N(CC(=O)NCC1CCCO1)C(=O)CCC(=O)Nc1cc(C)on1 (centres unmarked)	6.32%
COc1cccc(CNC(=O)CC2Sc3ccccc3NC2=O)c1 (centres unmarked)	12.9%
COCCC(=O)N1CCC(Oc2ccc(C(=O)NCCc3cn[nH]c3)cc2)CC1	20.2%
Cn1c(CNc2ccc(Cl)cc2)nnc1SCC#N	-14.5%
Cc1ccc(N=C2NC(=O)/C(=C/c3cccn3C)S2)cc1C	6.08%
O=C(CN1CCN(Cc2ccc(Cl)cc2)CC1)N/N=C/c1cccc(F)c1	-69.2%
O=C(CCc1nc(-c2ccccc2)no1)NCc1cccnc1	-18.8%

SMILES	hERG current change (%, negative = inhibition) at 10uM
COc1cc(C)ccc1NC(=O)Cc1csc(NC(=O)Nc2ccccc2OC)n1	-1%
CCOC(=O)C[n+]1ccc2c([nH]c3ccccc32)c1C.[Br-]	0.495%
O=C(Nc1ccc(Cl)cc1)Nc1ccc(Cl)c(Cl)c1	10.9%
COc1cccc(CNC(=O)COC(=O)CCCNC(=O)c2ccc(Cl)cc2)c1	-9.21%
O=c1[nH]c(COc2ccc(Cl)cc2Cl)nc2ccccc12	12.4%
COCCN(C(=O)CNC(=O)c1ccco1)C(C(=O)NC1CCCCC1)c1cccc(OC)c1 (centres unmarked)	3.05%
O=C(COC(=O)c1n[nH]c(=O)c2ccccc12)NCc1ccccc1	-7.72%
O=C(c1ccoc1)N1CCC2(CC1)Oc1ccc(F)cc1C(=O)C21CC(c2ccccc2)=NO1 (centres unmarked)	-8.73%
Cc1coc2c(C)c3oc(=O)c(CCC(=O)NCCCn4ccnc4)c(C)c3cc12	-44.4%
c1cncc(CNc2ccc3c(c2)OCO3)c1	-7.08%
CC(C)NC(=O)C1CCN(C2CCN(CC3CC=CCC3)CC2)CC1 (centres unmarked)	-15%
O=C(c1ccc(Cl)cc1)c1c[nH]cc1-c1ccccc1	11.4%
CCC(Sc1nc2n[nH]c(C)c2c(=N)n1-c1cc(Cl)ccc1C)C(=O)N1CCOCC1 (centres unmarked)	-0.58%
Cc1ncsc1CCOC(=O)c1cccc([N+](=O)[O-])c1.Cl	-21.8%
CCCC(=O)Nc1c2c(nn1-c1ccc(OC)cc1)CS(=O)(=O)C2	3.92%
CCOC(=O)N1CCN(c2cc(N3CCN(CC)CC3)c(F)cc2[N+](=O)[O-])CC1C (centres unmarked)	-45.9%
CC(C)CC(=O)Nc1nnc(S(=O)(=O)Nc2ccccc2)s1	14.8%
Cc1ccc(S(=O)(=O)N2CCN=C2c2ccccc2)cc1C	-9.01%
CC(C)(C)N1C(=O)[C@H]2[C@@H](c3ccc(Br)cc3)N3C(=O)N(c4ccccc4)C(=O)[C@@]3(C)[C@H]2C1=O	-6.9%
Cc1ccc(CNc2nc(C)cs2)cc1	5.74%
Cc1c(Br)ccc(NC(=O)CCN2C(=O)C3C4CCC(C4)C3C2=O)c1C (centres unmarked)	-15.6%
Cc1ccccc1NC(=O)c1ccc(Cn2cc([N+](=O)[O-])cn2)o1	-21%

SMILES	hERG current change (%, negative = inhibition) at 10uM
CC[n+]1c(/C=C/N(C)c2ccccc2)n(-c2ccccc2)c2ccc(-c3nc4ccccc4s3)cc21.[I-]	-81.1%
COc1ccc(N2CCN(CCN3C(=O)c4ccccc4C3=O)CC2)cc1	17.6%
Br.CCOC(=O)CN=C1CC(C)(C)CC2=C1Sc1ncnc(N(C)C)c1N2	-42.5%
CC(C)N(C)CCOC(=O)c1ccc2c(c1)OCCO2.Cl	-8.98%
CC(Oc1ccccc1)C(=O)N1CCN=C1SCc1ccccc1F (centres unmarked)	-22.4%
COc1ccc(C(C(=O)NC(C)(C)C)N(Cc2ccc(C)cc2)C(=O)CCC(=O)Nc2cc(C)on2)cc1 (centres unmarked)	-3.86%
CCN(CC)CCN1C2=C(C(=O)CC(C)(C)C2)C(c2cccc(F)c2)C2=C1CC(C)(C)CC2=O	10.7%
CCOc1ccccc1NC(=O)C(CC(C)C)NC(=O)C1CCCCC1 (centres unmarked)	-10.2%
Cc1cc(C)cc(OCC(=O)N/N=C\c2cn(C)nc2C)c1	-11.7%
COc1ccccc1CNC(=O)c1ccccc1OCc1ccc(F)cc1	-10%
Cc1ccc(S(=O)(=O)N2CCCCC2)cc1NC(=O)CCN1C(=O)C2CC=CCC2C1=O (centres unmarked)	-18.2%
COc1ccc(NS(=O)(=O)c2cc(NC(=O)C3CC3)ccc2N2CCOCC2)cc1	-40.8%
COc1ccc(-n2ncc3c2CC(C)(C)CC3NC(=O)c2ccc(OC)o2)cc1 (centres unmarked)	-50.2%
CN(C)CC(=O)Nc1nc(-c2ccccc2)cs1	-5.76%
CC#CCC(CC#CC)c1nc2ccccc2c(=O)n1N	-1.36%
CSc1nccn1C(=O)c1ccccc1[N+](=O)[O-]	18.2%
N/C(=N\OS(=O)(=O)c1ccc(Br)cc1)c1ccncc1	-18.1%
CCOc1cc(-c2nc3n(c(=O)c2C#N)CCS3)ccc1O	20.6%
CCOC(=O)N1CCN(C(=O)CNS(=O)(=O)c2c(C)cc(C)cc2C)CC1	8.18%
Cc1noc(C)c1S(=O)(=O)N(CC(=O)NCc1ccccc1)c1ccc(C(C)C)cc1	10.4%
